# Data published in PubChem BioAssay AID485344 (National Center for Advancing Translational Sciences (NCATS), 2010).
# The campaign covered roughly 340,000 compounds. About 6,900 (2%) were called active. No stated cut-off is given here; in the data, active means inhibition above about 30%; inactive means below that, where a call was filed. The list shows a part of the results, in another mix than the full data. Where no call is shown, the source filed none.
# Molecular target: D(2) dopamine receptor (Homo sapiens) (UniProt P14416)
# Sequence of UniProt P14416 (P14416 whole entry, looked up): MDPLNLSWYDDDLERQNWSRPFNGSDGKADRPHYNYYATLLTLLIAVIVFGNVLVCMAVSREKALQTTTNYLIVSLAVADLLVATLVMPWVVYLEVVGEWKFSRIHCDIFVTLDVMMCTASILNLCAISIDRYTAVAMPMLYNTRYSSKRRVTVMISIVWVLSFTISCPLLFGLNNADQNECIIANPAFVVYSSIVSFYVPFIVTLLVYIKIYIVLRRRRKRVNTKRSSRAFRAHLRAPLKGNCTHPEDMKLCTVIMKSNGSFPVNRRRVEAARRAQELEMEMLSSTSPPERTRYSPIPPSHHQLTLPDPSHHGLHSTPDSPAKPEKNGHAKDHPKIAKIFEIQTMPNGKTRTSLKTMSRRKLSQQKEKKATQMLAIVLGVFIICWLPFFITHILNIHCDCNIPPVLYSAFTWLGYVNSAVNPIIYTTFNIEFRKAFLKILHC
# Test: HTS Assay for Allosteric Antagonists of the Human D2 Dopamine Receptor: Primary Screen for Antagonists; further: 0% is about no effect
# Conditions: HEK293 TREx D2 cells, calcium flux, dopamine EC80; at 10 µM; stronger effect = higher value
# How it was run: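 HEK293 T-REx D2 cells, tet-induced, calcium dye no-wash. Cpd pintool add, 180 s kinetic, then EC80 DA, 180 s kinetic. Ca flux read.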
row,Compound,inhibition
1,COc1ccc2nc(N=NC3=C(O)CC(C)(C)CC3=O)sc2c1,active: 33.7%
2,CC(=O)c1ccc(NC(=O)c2nc(-c3ccccc3)n(-c3ccccc3Cl)n2)cc1,3.08%
3,CCc1nnc(SCc2ccc(F)cc2Cl)c2cc3sc(C)cc3n12,-1.96%
4,COc1ccc(NC(=O)C2CCC(CNS(=O)(=O)c3ccc4c(c3)C(C)(C)C(=O)N4C)CC2)cc1 (stereo unspecified),17.2%
5,CCOc1ccc(Nc2ncnc3c2nc2n3CCCCC2)cc1,13.5%
6,Cc1cccc(N2CCN(C(=O)Cn3ncc4c3-c3ccccc3OC4)CC2)c1C,6.16%
7,O=C(Nc1nnc(S(=O)(=O)N2CCCCCC2)s1)c1cccc(Br)c1,1.08%
8,O=C(Nc1cccc(Cl)c1)c1cc(-c2ccccc2)on1,3.83%
9,CC(C)C(=O)Nc1ccc2c(c1)nc(CCN1CCN(c3ccccn3)CC1)n2C,active: 32.6%
10,Cc1ccccc1CN1C[C@@H]2C[C@@H](c3cnc(N4CCOCC4)s3)N3CCC[C@@]23C1=O,active: 36.7%
11,Cn1cc(C(=O)NCCc2ccc(Cl)cc2)c(=O)c2cc(S(=O)(=O)N3CCOCC3)ccc21,-1.57%
12,COc1ccc(CNC(=O)CCCc2nnc3n(CCC(C)C)c(=O)c4sccc4n23)cc1,-2.02%
13,O=c1[nH]c(C2CCCN(S(=O)(=O)c3ccccc3Cl)C2)nc2c1nnn2Cc1ccc(OC(F)(F)F)cc1 (stereo unspecified),3.22%
14,Cc1ccc(CCNC(=O)C2CC(=O)N(CCc3ccccc3)C2)cc1 (stereo unspecified),-1.18%
15,COc1ccc(CCNC(=O)c2ccc3c(c2)c(C)c(C)n3Cc2ccccc2)c(OC)c1OC,7.99%
16,CCc1nn(CCCC(=O)N2CCN(c3ccc(OC)cc3)CC2)c(=O)c2cc3occc3n12,-4.29%
17,CCOc1cc(C(=O)Nc2ccc(-c3nc4cc(Cl)ccc4o3)cc2)cc(OCC)c1OCC,4.26%
18,CC1CCCCN1C(=O)CSc1n[nH]c(-c2ccccc2)n1 (stereo unspecified),5.24%
19,CC(=O)c1cccc(-n2c(=O)c3c4c(sc3n(CC(=O)c3ccc(Cl)cc3)c2=O)CN(C(C)=O)CC4)c1,-8.88%
20,Cc1cccc(C(=O)N(Cc2ccco2)Cc2ccccc2F)c1,5.49%
21,CCN(CC)c1ccc(/C=N/NC(=O)CNC(=O)c2ccc3c(c2)OCCO3)cc1,active: 33%
22,COc1cccc(C2C(=O)N(C3CCCCC3)CC(=O)N2Cc2ccc(Cl)cc2)c1 (stereo unspecified),-7.88%
23,Cc1cc(NC(=O)N2CCC(CN3CCOCC3)CC2)ccc1Br,9.71%
24,Cc1ccc(NC(=O)Cn2c(=O)oc3cc(S(=O)(=O)N4CCC(C)CC4)ccc32)cc1Cl,-0.754%

row,Compound,inhibition
1,Cc1ccc2c(c1)C(=O)OC(C(=O)Nc1ncc(Cc3ccccc3)s1)C2 (stereo unspecified),9.17%
2,CCc1ccc(C2C(C(=O)Nc3ccc(Cl)cc3)=C(C)Nc3ncnn32)cc1 (stereo unspecified),-2.97%
3,COc1cccc(-c2nc3c(c(C)nn3-c3ccccc3)c3cc(OC)c(OC)cc23)c1,5.31%
4,CCNc1nc(Oc2ccc(=O)n(-c3ccccc3)n2)nc(N(C)C)n1,-4.54%
5,COc1ccc(N2CCN(C(=O)c3cc4cc5ccc(Cl)cc5nc4o3)CC2)cc1,17.3%
6,COc1ccc(C)cc1S(=O)(=O)NCC(c1ccc(N(C)C)cc1)N1CCc2ccccc21 (stereo unspecified),-13.6%
7,O=C(O)c1ccc(N2C(=O)c3[nH]nc(-c4ccccc4)c3C2c2cccc(F)c2)cc1 (stereo unspecified),14.1%
8,COc1ccccc1C(=O)Nc1cc(-c2ccc(C)cc2)no1,15.5%
9,Cc1ccccc1Cn1c(CN2CCN(c3cc(Cl)ccc3C)CC2)nc2c1c(=O)[nH]c(=O)n2C,-24.3%
10,COc1ccc(CCNC(=O)CCc2c(C)c3cc4c(C)coc4cc3oc2=O)cc1,-3.34%
11,Cc1ccc(Cl)cc1NC(=O)CCCN1C(=O)CCn2nc(-c3cn(C)c4ccccc34)cc21,-3.38%
12,CCOc1ccc(CCNC(=O)CCn2c(=O)c3cccn3c3cccnc32)cc1,7.36%
13,CC1Cc2cc(S(=O)(=O)CCC(=O)Nc3ccc(Cl)cc3F)ccc2N1C(=O)C1CC1 (stereo unspecified),-3.39%
14,CC1CN(C(=O)/C(C#N)=C2\N=C(NC(=O)c3ccccc3Cl)c3ccccc32)CC(C)O1 (stereo unspecified),active: 58.9%
15,COc1ccc(CCC(=O)NCc2nc3cccnc3n2Cc2ccccc2)cc1,-1.02%
16,CC(C)Oc1ccc(C(=O)Nc2ccc(-c3nc4ccccc4s3)cc2)cc1,-8.57%
17,O=C(CSc1nc2ccccc2nc1Cc1ccccc1)N1CCN(c2ccccc2)CC1,4.47%
18,CC(=O)Nc1cc(-c2ccccc2)nn1Cc1cccc(Cl)c1,-5.74%
19,CCc1ccccc1Nc1nn2c(=O)c3ccc(C(=O)Nc4ccc(OC)cc4)cc3nc2s1,7.99%
20,COC(=O)c1nnn(CC(=O)NC(=O)Nc2ccccc2F)c1C(=O)OC,7.32%
21,Cc1noc(NS(=O)(=O)c2ccc(NC(=O)c3ccc(Br)cc3)cc2)c1C,-6.67%
22,Cc1ccc2oc(C(=O)Nc3nnc(CC(C)C)s3)cc(=O)c2c1,-5.53%
23,CCN(CC)c1cc(C)nc2nc(-c3ccc(C)cc3)nn12,-15.2%
24,Cc1ccc(CN2CCSc3ccc(C(=O)Nc4ccc(F)cc4F)cc32)cc1,-13.8%

row,Compound,inhibition
1,COc1ccc(N2CCN(C(=O)c3cc4c(=O)n(Cc5ccccc5)ccc4nc3C)CC2)cc1,4.82%
2,COc1cc(CNCc2c(C(=O)O)c(C)n(Cc3cccc(Cl)c3)c2C)cc(OC)c1OC,12.9%
3,CCC(C(=O)N1CCN(c2cc(Cl)ccc2C)CC1)n1nc(C)n2c(cc3occc32)c1=O (stereo unspecified),-5.35%
4,COc1ccc(Br)cc1CNC(=O)C(C)n1nc(C)n2c(cc3occc32)c1=O (stereo unspecified),11.6%
5,CCc1cccc(NC(=O)CN2C(=O)CCc3cc(S(=O)(=O)N4CCOCC4)ccc32)c1,11.7%
6,Cc1c(C(N)=O)nnn1-c1ccc(Br)cc1,15.3%
7,CCN(CC)CCNC(=O)C1CCCN(c2ncnc3onc(C)c23)C1 (stereo unspecified),5.35%
8,Cc1ccc(C)c(-c2csc(-c3c(N)c(C(=O)c4ccc5c(c4)OCO5)n4ccccc34)n2)c1,-7.97%
9,CCOC(=O)c1c(S(=O)(=O)N2CCCC(C(=O)N3CCN(c4ccc(F)cc4)CC3)C2)c(C)n(C)c1C (stereo unspecified),17.9%
10,COc1ccc(CCNC(=O)Cn2nc(C)n3c(cc4occc43)c2=O)cc1OC,0.562%
11,COc1ccc(CCNC(=O)Cn2ncc3c(C)n(Cc4ccccc4F)c(C)c3c2=O)cc1OC,2.33%
12,Cc1cccc(NC(=O)Cn2c(=O)oc3cc(S(=O)(=O)NCc4ccccc4)ccc32)c1,0.163%
13,CCn1cc(C(=O)OCC(=O)Nc2cc(Cl)ccc2OC)c(=O)c2ccc(C)nc21,13.6%
14,COc1ccc(Br)cc1C1CC(=O)Nc2c1c(C)nn2-c1nc(C)cc(C)n1 (stereo unspecified),15.3%
15,Cc1ccc2nc(N(Cc3cccnc3)C(=O)C3CCCCC3)sc2c1,11%
16,COc1ccc(NC(c2ccc(F)cc2)c2nnc(-c3ccccc3Cl)o2)cc1Cl (stereo unspecified),3.98%
17,Cc1cc2c(=O)c(C(=O)c3ccncc3)cn(CC(=O)Nc3cccc(C)c3C)c2cc1C,3.87%
18,Cc1oc(-c2ccc(C(=O)NCc3ccc(N(C)C)cc3)cc2)nc1COc1ccccc1,-0.184%
19,CC(NC(=O)CN(C)S(=O)(=O)c1ccc2c(c1)c(=O)n(C)c(=O)n2C)c1ccccc1 (stereo unspecified),-9.78%
20,Cc1cc(=O)n(CC(=O)NCCC(C)C)c2c1c(C)nn2C,2.05%
21,Cn1cc(S(=O)(=O)N2CCCCC2)cc1C(=O)N1CCN(c2ccc(F)cc2)CC1,9.86%
22,Cc1ccc2c(c1)c(=O)c(C(=O)c1ccncc1)cn2CC(=O)Nc1c(C)cccc1C,-8.84%
23,CCc1ccc(NC(=O)CSc2nccn2C2CCCC2)cc1,12.5%
24,Cc1ccc(C)c(S(=O)(=O)c2cnc(SCC(=O)Nc3ccc(F)cc3F)[nH]c2=O)c1,-12.3%

row,Compound,inhibition
1,Cc1ccc(CNCc2c(C(=O)O)n(Cc3ccccc3C)c3cc(C)ccc23)cc1,-1.65%
2,Cc1ccc(CC2C(=O)N(CC(=O)O)C(=O)C2C)cc1 (stereo unspecified),active: 30.9%
3,Clc1ccc(-c2csc(N/N=C/c3ccc4c(c3)OCO4)n2)cc1,active: 34.8%
4,CC1CCCCN1C(=S)NCc1ccccc1 (stereo unspecified),active: 31.9%
5,COc1cc(OC)c(NC(=O)CCn2cnc3onc(-c4ccc(F)cc4)c3c2=O)cc1Cl,-10.9%
6,CCOc1ccc(NC(=O)N(Cc2c[nH]c3ccccc23)C2CCCCC2)cc1,18%
7,Nc1cc(=O)nc(SCC(=O)Nc2ccc(F)cc2)n1-c1ccc(Cl)cc1,2.26%
8,Cc1oc(-c2cccc(Cl)c2)nc1CN1CCC(C(=O)NCCCN2CCN(c3cccc(Cl)c3)CC2)CC1,-11.9%
9,Cc1ccc(S(=O)(=O)Nc2cccc(-c3ccc(N4CCCCC4)nn3)c2)s1,-0.919%
10,CC(=O)c1cccc(NC(=O)c2nc(-c3ccc(C)cc3)n3c2CCCCC3)c1,-16.5%
11,Cc1cccc(NC(=O)C2CCCN(S(=O)(=O)c3cccc4nonc34)C2)c1 (stereo unspecified),-2.86%
12,Cc1ccc(NC(=O)C(=O)NCc2ccc(Cl)cc2)cc1,-7.41%
13,CCOC(=O)C(C)Sc1nnc2ccc3ccccc3n12 (stereo unspecified),5.05%
14,COc1ccc(C2(CNC(=O)C(=O)Nc3cccc(C(F)(F)F)c3)CCCC2)cc1OC,-4.85%
15,CCOc1ccccc1C(=O)NCc1ccc2c(c1)CCN2C(C)=O,13.9%
16,Cc1ccc(C2c3[nH]c4ccccc4c3CCN2C(=O)Nc2ccc(C)c(C)c2)cc1 (stereo unspecified),13.9%
17,COc1ccc(NC(=O)c2sc3nc4c(cc3c2N)CN(Cc2ccccc2)CC4)cc1,-9.8%
18,COc1ccc(C(=O)NCCc2sc(-c3ccc(F)cc3)nc2C)cc1OC,0.699%
19,CC1CCC(NC(=O)C2(C)Cc3ccccc3C(=O)N2Cc2ccc(F)cc2)CC1 (stereo unspecified),5.73%
20,CCCCN(C)Cc1c(O)ccc2c(-c3ccccc3)cc(=O)oc12,active: 64.1%
21,CCC(C(=O)NC1CCCCC1)n1c(SCc2ccc(F)cc2)nc2ccncc21 (stereo unspecified),-19.5%
22,CCC(Cn1nnc2ccccc2c1=O)NC(=O)Nc1ccc(C)cc1C (stereo unspecified),18.6%
23,Cc1cccc(-c2nc(CSc3nncn4c3cc3oc(C)cc34)c(C)o2)c1,20%
24,COc1ccccc1OCC(=O)Nc1nc2c(s1)CC(C)CC2 (stereo unspecified),12.5%
